Reference: PubChem BioAssay AID686979 (National Center for Advancing Translational Sciences (NCATS), 2013)
Among all 420,000 compounds or so, about 50,000 (12%) were called active. This list was built around the results that the source calls inconclusive (neither active nor inactive); the mix of calls is not that of the screen. Calls come from the whole dose curve; as a rule, active = well fitted inhibition curve with a large enough effect; inconclusive = small, poorly fitted or top-dose-only effect; inactive = flat fitted curve, though single readings scatter. No potency is given beside an inconclusive call; the fits are too rough.

Assay: qHTS for Inhibitors of human tyrosyl-DNA phosphodiesterase 1 (TDP1): qHTS in cells in presence of CPT; note: nearly all actives have a fitted effect of over 55% in size
Details: chicken DT40 Tdp1-/-;hTDP1 cells + 20 nM CPT, ATP luminescence, 48 h; activity change, negative = growth inhibition: at 46.2 µM (top of the series) unless noted
How it was run: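 Chicken DT40 Tdp1-/- cells complemented with human TDP1, 400 cells/well, exposed to compounds plus 20 nM camptothecin for at least 48 h at 37 C; viability read as ATP content by CellTiter-Glo luminescence.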
% is set by controls: 0 for no effect and ±100 for the full control effect; potency is the fitted concentration of half-maximal effect; tags give direction and shape of the fitted curve.

| Structure (SMILES) | Potency | activity change, negative = growth inhibition |
| --- | --- | --- |
| Cc1ccc(C(=O)CSc2ncc3c(n2)-c2ccccc2N(Cc2ccc(Cl)cc2)S3(=O)=O)cc1 | inactive | – |
| COc1ccc(S(=O)(=O)N2CCOCC2)cc1NC(=O)c1ccc2c(c1)OCCO2 | inconclusive [inhibitor, single point] | – |
| COc1ccc(NC(=O)COc2ccccc2)c(OC)c1 | inconclusive [inhibitor, single point] | – |
| CCOC(=O)C1=CCN(S(=O)(=O)c2ccccc2F)C1c1ccc(Cl)c(Cl)c1 (centres undefined) | inconclusive [inhibitor, single point] | – |
| CSc1nsc(SC)c1C(=O)N1CCN(S(=O)(=O)c2ccc(C)cc2)C1C (centres undefined) | inconclusive [inhibitor, single point] | – |
| Cc1ccc(NC(=O)COc2coc(CN3CCN(c4ccccc4)CC3)cc2=O)cc1 | inactive | – |
| COC(=O)c1ccc(C(NC(=O)OCc2ccccc2)/C(C)=C/[C@@H](C)C(=O)NCc2ccc(-c3ccccc3)cc2)cc1 (some centres undefined) | inconclusive [inhibitor, single point] | – |
| COc1cccc(C(=O)NC(C)c2nnc3n2CCN(CC=C(C)C)CC3)c1 (centres undefined) | inactive | – |
| COc1cc(/C=C2/SC(=S)N(Cc3ccccc3)C2=O)cc(OC)c1O | inconclusive [inhibitor, partial curve] | – |
| COc1ccc(-c2nn(-c3ccccc3)cc2/C=C/C(=O)NCCCn2ccnc2)cc1OC | inactive | – |
| CCOC(=O)c1c(NC(=O)c2cccc(N3C(=O)CCC3=O)c2)sc(C)c1C | inconclusive [inhibitor, single point] | – |
| COC(=O)c1nn(-c2ccc(OC)cc2)c(=O)cc1NN | inactive | – |
| C#CCNC(=O)C1=C[C@H](c2coc3ccccc3c2=O)[C@@H](CCCO)[C@H](OCC)O1 | inactive | – |
| O=C(Nc1cccc(-n2cnnn2)c1)c1cccc(Cl)c1 | inconclusive [inhibitor, single point] | – |
| CCCCOC(=O)CSc1nc2c(c(=O)[nH]c(=O)n2C)n1C/C=C(\C)Cl | – | inconclusive: -34.8% [inhibitor] |
| CC(C)(C)CC(C)(C)N=C1Nc2ccc(Cl)cc2N[C@]12C[C@H]1CCCC(=O)N3CC[C@@H](C2)[C@@H]13 | inconclusive [inhibitor, single point] | – |
| CO/N=C(/C(=O)N[C@@H]1C(=O)N2C(C(=O)O)=C(COC(N)=O)CS[C@H]12)c1ccco1 | inconclusive [inhibitor, full curve, poor fit] | – |
| CC(C)CC1(C)NC(=O)N(CC(=O)Nc2ccc3c(c2)CCC3)C1=O (centres undefined) | inconclusive [inhibitor, single point] | – |
| COc1ccc(S(=O)(=O)N2CCCc3ccccc32)cc1[N+](=O)[O-] | inactive | – |
| COc1cccc(NC(=O)c2sc3nc4n(c(=O)c3c2C)CCC4)c1 | inconclusive [inhibitor, single point] | – |
| CCSc1nnc(NC(=O)c2csc3c2CCC(C)C3)s1 (centres undefined) | active: 18.4 µM | – |
| O=C(COc1ccc(F)cc1)Nc1c(C(=O)N2CCC(N3CCCCC3)CC2)oc2ccccc12 | inconclusive [inhibitor, single point] | – |

| Structure (SMILES) | Potency | activity change, negative = growth inhibition |
| --- | --- | --- |
| CCc1cccc(NC(=O)C2CCCN(S(=O)(=O)c3cccnc3)C2)c1 (centres undefined) | inconclusive [inhibitor, single point] | – |
| Cc1ccccc1C(=O)N1CC(=O)Nc2ccc(F)cc2C1c1ccccc1 (centres undefined) | inactive | – |
| O=C(C[n+]1ccc(Cl)c2ccc(Cl)cc21)c1ccc(F)cc1 | active: 10 µM | – |
| O=C(Nc1ccccc1)c1ccc(CN2CCC(Cc3ccccc3)CC2)cc1 | inconclusive [inhibitor, single point] | – |
| COc1ccc2[nH]c(=O)c(CN(Cc3ccco3)C(c3nnnn3Cc3ccccc3)C(C)C)cc2c1 (centres undefined) | active: 18.4 µM | – |
| CCOC(=O)/C=C1/SCC(=O)N1CC(=O)Nc1cccc(F)c1 | inactive | – |
| Cc1cc(=O)[nH]c(N/N=C/c2c(C)nn(-c3ccc(F)cc3)c2Cl)n1 | inactive | – |
| CN(c1ccccc1)S(=O)(=O)c1ccc(C(=O)Nc2nnc(-c3ccco3)o2)cc1 | active: 14.6 µM | – |
| Cc1ccc(-c2csc(NC(=O)CN3CCOCC3)n2)cc1C | inconclusive [inhibitor, single point] | – |
| CCN1C(=O)/C(=C2\C=Cc3cc(C)ccc3N2CC)OC1=S | inconclusive [inhibitor, single point] | – |
| Cc1ccc(S(=O)(=O)N2CCC(C(=O)OCC(=O)N(Cc3ccccc3)C(C)(C)C)CC2)cc1C | inconclusive [inhibitor, partial curve] | – |
| COCCNc1oc(/C=C/c2cccc(OC)c2)nc1S(=O)(=O)c1ccccc1 | inconclusive [inhibitor, single point] | – |
| C/C(=N\NC(=O)CCc1c[nH]c2ccccc12)c1cccc([N+](=O)[O-])c1 | inconclusive [inhibitor, partial curve] | – |
| COc1ccccc1N1CCN(C(=O)CSc2nc3ccccc3nc2N2CCCCC2)CC1 | inconclusive [inhibitor, single point] | – |
| CCc1ccc(NC(=O)C(NS(=O)(=O)c2ccc3c(c2)CCN3C(C)=O)C(C)C)cc1 (centres undefined) | inconclusive [inhibitor, single point] | – |
| CC1(C)CC(NC(=O)C2CCN(S(=O)(=O)c3ccccc3C(F)(F)F)CC2)CC(C)(C)N1 | inactive | – |
| O=C(COC(=O)Cn1cc(C(F)(F)F)ccc1=O)Nc1ccc(Br)cc1F | inactive | – |
| CCCC12CN3CCN(CC(C3)/C1=N\NC(=O)c1ccc(C(C)(C)C)cc1)C2 | inactive | – |
| CCC(C)NC(=O)C1CCN(S(=O)(=O)c2cc([N+](=O)[O-])ccc2Cl)CC1 (centres undefined) | inconclusive [inhibitor, single point] | – |
| CCN(CC)S(=O)(=O)c1cccc(C(=O)Nc2cc3oc4ccccc4c3cc2OC)c1 | active: 16.4 µM | – |
| CCOC(=O)c1[nH]c2ccc(OC)cc2c1NC(=O)c1nonc1C | inactive | – |
| N#Cc1ccsc1NC(=O)CCc1ccccc1 | inconclusive [inhibitor, single point] | – |
